Measurements: ChEMBL document CHEMBL4888484, “Replenishing the malaria drug discovery pipeline: Screening and hit evaluation of the MMV Hit Generation Library 1 (HGL1) against asexual blood stage Plasmodium falciparum ,using a nano luciferase reporter read-out” (2022)
In all, about 150,000 compounds went through this assay and about 540 (0.36%) showed an effect of 50% or more. This is one part of the list.

Test system: Plasmodium falciparum
Test: Primary screen in NF54 nanoGlo assay, in single point, at 2uM, 72h; a lower Z score goes with more inhibition
Format: functional, Erythrocyte
Conditions: timepoint 72 hour

Structure (SMILES) | % Inhibition | Z score | % Inhibition (2 µM) | Z score (2 µM)
O=C(Nc1c(-c2ccc(F)cc2)nc2c(Cl)cc(C(F)(F)F)cn12)c1ccccc1 | -9% | 1.25 | – | –
Cc1ccccc1[C@H](CC(=O)O)NC(=O)C(F)(F)F | 31% | -1.08 | – | –
COc1cccc(-n2c(C)cc(C(=O)Cn3cnc4ccccc4c3=O)c2C)c1 | -7% | 0.76 | – | –
CCOc1ccc(S(=O)(=O)N(C)c2ccc(OC(=O)CCc3c(C)noc3C)cc2)cc1 | -2% | 0.34 | – | –
NC(=O)[C@H]1CCCN1C(=O)N[C@@H]1c2ccccc2C[C@H]1O | -9% | 1.87 | – | –
Cc1n[nH]c(C)c1CCN(C)C(=O)c1ccc2c(c1)C[C@H](C)O2 | 0% | -0.05 | – | –
COc1ccccc1C1(CNC(=O)C(=O)NC2CC2)CCOCC1 | -6% | 1.04 | – | –
CCN(C(=O)COc1cccc(C)c1C)[C@H](c1ccc(C)cc1)c1c[nH]c2ccccc12 | 1% | -0.09 | – | –
CC1CN(Cc2cc(-c3cnn(C)c3)no2)C(c2ccccc2)CO1 (configuration not stated) | -2% | 0.36 | – | –
COc1cccc(CN2CCN(c3nc[nH]n3)CC2)c1C | -8% | 1.28 | – | –
O=C(C[C@H]1C(=O)OCCN1C1CCCCC1)Nc1ccccc1 | -14% | 1.63 | – | –
c1ccc(-c2noc(-c3nc(-c4ccccn4)no3)n2)cc1 | -21% | 1.94 | – | –
Cc1cnc(C(=O)N2CCC3(CCC(=O)N(CCc4cccnc4)C3)CC2)cn1 | -13% | 1.87 | – | –
CCOc1cc(N[C@H]2Cc3ccccc3NC2=O)ncn1 | -7% | 1.08 | – | –
O=C(CN1C(=O)C2CC=CCC2C1=O)N1CCN(S(=O)(=O)c2ccc3ccccc3c2)CC1 (configuration not stated) | -7% | 1.11 | – | –
COc1cccc(C2C(NC(=O)c3ccoc3)CCN2C2CC2)c1 (configuration not stated) | 38% | -5.09 | – | –
CN1[C@@H](c2ccccc2Cl)[C@@H](C(=O)NCc2ncc[nH]2)C[C@@]1(C)C(=O)O | -8% | 0.79 | – | –
COC1(CN[C@H](c2cccc(Cl)c2F)C2CC2)CCOCC1 | -12% | 1.21 | – | –
CCc1ccc(CCNC(=O)c2cnn3c2NCCC3)cc1 | 4% | -0.69 | – | –
CN(CCC(=O)NCc1cccs1)CCc1ccccn1 | -10% | 1.16 | – | –
CNS(=O)(=O)c1ccccc1N1CC(C)(OC)C1 | -18% | 2.58 | – | –
COCC(=O)N1CCC(N2C[C@H](Oc3ccccc3)[C@@H]2c2ccncc2)CC1 | -9% | 1.14 | – | –

Structure (SMILES) | % Inhibition | Z score | % Inhibition (2 µM) | Z score (2 µM)
COCCN(Cc1c(-c2ccccc2)noc1N1CCN(C)CC1)C(=O)C1CCCC1 | 0% | -0.03 | – | –
COc1ccc(-c2cc3ccccc3n2CC(O)CNCC2CCCO2)cc1 (configuration not stated) | – | – | 1% | -3.58
O=C(COC[C@H]1CCCO1)Nc1ccns1 | -16% | 2.1 | – | –
CS(=O)(=O)c1ccc(-c2noc(-c3ccnnc3)n2)cc1 | -15% | 1.88 | – | –
CS(=O)(=O)N1CCC[C@H]1c1noc(CCC(=O)NC2CCCC2)n1 | -17% | 1.9 | – | –
CCCC1C(=O)CC(C(C)C)C(C#N)(C#N)C1(C#N)C#N (configuration not stated) | -7% | 0.86 | – | –
CN(CC1(O)CCC1)C(=O)C(C)(C)N1CCOCC1 | 1% | -0.11 | – | –
CCCN(CCOC)Cc1cccs1 | -9% | 1.01 | – | –
Cc1cccc(CC(=O)OCc2cc(-c3ccncc3)n[nH]2)c1 | 10% | -1.53 | – | –
Cc1ccccc1-c1ncc(-c2cn(C[C@H]3CCS(=O)(=O)C3)nn2)s1 | -15% | 2.01 | – | –
CS(=O)(=O)C1(c2nc(-c3cccc(Cl)c3)no2)CCOCC1 | -4% | 0.8 | – | –
C[C@]1(c2ccc(Br)cc2)CC(=O)N(CC(=O)Nc2ccc(F)cc2Cl)C1=O | 0% | -0.04 | – | –
O=C(c1ccoc1C1CC1)N1CC[C@H](c2ccc3cccnc3n2)C1 | 8% | -1.08 | – | –
CN(CC(N)=O)Cc1ccc(Br)cc1F | -11% | 1.6 | – | –
Cc1cc(N(CCO)C2CC2)nc(C2CC2)n1 | 35% | -4.72 | – | –
CCOc1ccccc1C(=O)NC[C@@H](c1ccc(N(C)C)cc1)N1CCOCC1 | -15% | 1.45 | – | –
c1ccc2c(C3CC3c3nc(Cc4ccon4)no3)cccc2c1 (configuration not stated) | -6% | 0.9 | – | –
COC(=O)C1CC12CCN(S(=O)(=O)CC(OC)C1CCC1)CC2 (configuration not stated) | 6% | -0.81 | – | –
CCc1cc(C(=O)N(C)Cc2ccon2)ccn1 | -6% | 1.26 | – | –
N#Cc1cccnc1N(CCCO)Cc1cccnc1 | -14% | 1.63 | – | –
COC(=O)[C@H](Cc1cn(C)cn1)NS(=O)(=O)N(C)C1CCCC1 | -8% | 1.07 | – | –
O=C(Nc1nc(-c2ccccn2)cs1)c1cnn(Cc2ccccc2)c1 | -7% | 1.09 | – | –

Structure (SMILES) | % Inhibition | Z score | % Inhibition (2 µM) | Z score (2 µM)
Clc1ccc(OCCn2ccnn2)cc1 | 2% | -0.17 | – | –
CN(C[C@H]1CCOC1)c1nnnn1CC1CCC(C(F)(F)F)CC1 (some centres not stated) | -3% | 0.53 | – | –
CN1C[C@@H](NC(=O)Nc2ccc(Cl)c(C(F)(F)F)c2)CCC1=O | 8% | -1.31 | – | –
Cc1nc(NC2CCCCC2)sc1C(=O)Nc1cccc(F)c1C | -2% | 0.19 | – | –
CCS(=O)(=O)N(C)CC(=O)N1C(C)CC(c2ccccc2)C1C (configuration not stated) | -8% | 0.82 | – | –
CCc1noc(-c2cccn2Cc2ccc(OC)c(F)c2)n1 | -2% | 0.45 | – | –
CC(C)Cc1ccc(CN2CCO[C@H](C(=O)O)C2)s1 | -11% | 1.69 | – | –
Cc1ccc(CNC(=O)NC2CCN(c3nc4cccnc4n(C)c3=O)CC2)cc1 | -15% | 1.99 | – | –
COc1cccc(C(=O)N2CCN(c3nc4nonc4nc3N3CCCC3)CC2)c1 | -2% | 0.27 | – | –
CCC(=O)N1CC[C@H](Nc2nc(C(C)C)no2)C1 | -10% | 1.34 | – | –
O=C(NCc1cccc(Cl)c1F)NC1CCC1 | -7% | 1.35 | – | –
C[C@@H](CC(=O)Nc1nccs1)n1cccn1 | -9% | 1.68 | – | –
Cn1nc(C(=O)N2CCN(S(=O)(=O)c3cccc(F)c3)CC2)ccc1=O | -4% | 0.62 | – | –
CCOc1cnc(C(=O)NCCc2ccnn2C)cn1 | -5% | 0.61 | – | –
O=C(c1ccc(N2CCCC2=O)cc1)N1CC[C@H]2[C@H](CCC(=O)N2Cc2cccnc2)C1 | 3% | -0.41 | – | –
Cc1ccc(-c2nc(CNC(=O)C[C@H]3CNCCO3)[nH]c2-c2ccccn2)cc1 | 24% | -2.12 | – | –
CC[C@H](C)NC(=O)CN1CN(c2ccccc2)C2(CCN(C(=O)c3cccc(F)c3)CC2)C1=O | -2% | 0.29 | – | –
COc1c(NC(=O)NC2CC2C)c(C)nn1C (configuration not stated) | -2% | 0.26 | – | –
CCn1cc(CCN(C)Cc2cccc3[nH]ccc23)cn1 | -7% | 1.1 | – | –
C[C@@H](NC(=O)c1cccc2ccnn12)C(N)=O | -4% | 0.5 | – | –
OCCCN1c2ccccc2Nc2nnc(-c3ccccc3)cc21 | 36% | -4.06 | – | –
C=CCC(O)(CC=C)[C@H](C)n1cc(Oc2ccccc2)c(=O)c(C(=O)O)c1 | 6% | -1.15 | – | –

Structure (SMILES) | % Inhibition | Z score | % Inhibition (2 µM) | Z score (2 µM)
O=C(Nc1ccc([C@@H](O)[C@H]2COCC(=O)N2CC2CC2)cc1)c1ccc(F)cc1 | -16% | 2 | – | –
Cc1ncc(C(=O)N(C)Cc2ccc3c(c2)CN(C)C3)c(=O)[nH]1 | -12% | 1.74 | – | –
O=C(CN1C(=O)COc2ccc(Cl)cc21)NC1CCCCC1 | -7% | 0.84 | – | –
CC(C)Cc1nc(CNS(C)(=O)=O)n(Cc2ccccc2Cl)n1 | 14% | -2.67 | – | –
O=C1[C@@H](Nc2nc(C3CC3)ns2)CCCN1CCO | -19% | 2.28 | – | –
CC[C@H](NC(=O)NCC(=O)NCC(C)C)c1nc(C)cs1 | -13% | 1.81 | – | –
CCn1ncc(-c2nc3c([nH]2)CCCNC3=O)c1C | -13% | 1.74 | – | –
Cc1cccc(CC2(NC(=O)N(C)Cc3nc(C)c[nH]3)CC2)c1 | -10% | 1.29 | – | –
CNC[C@H]1CCN(C(=O)COc2ccccc2-c2ccccc2)C1 | 9% | -1.09 | – | –
COc1cccc(C(=O)N2CCc3nc(N4CCN(c5ccc(F)cc5)CC4)nc(N(C)C)c3C2)c1 | -7% | 0.91 | – | –
CNc1ncc(CN(C)Cc2nc(-c3cccc(Cl)c3)oc2C)cn1 | 0% | 0.06 | – | –
Cc1noc(CCNc2ncc(Cl)cc2F)n1 | -3% | 0.4 | – | –
CC(C)c1nnc(NC(=O)C2(C(=O)O)CCCCCC2)s1 | -6% | 0.92 | – | –
CN(C)c1cccc(S(=O)(=O)N2CCOC[C@H]2C(N)=O)c1 | 16% | -1.72 | – | –
O=C1CO[C@H]2CN(Cc3cccnc3)C[C@H]2N1Cc1cccc(C(F)(F)F)c1 | -1% | 0.07 | – | –
COc1cccc(C(=O)NC2CCCN(C(=O)OC(C)(C)C)C2C)n1 (configuration not stated) | -11% | 0.99 | – | –
CC(NC(=O)NCc1nnc2ccccn12)C1CCCO1 (configuration not stated) | -11% | 1.39 | – | –
CCOC(CCN[C@@H](C)c1cc(OC)ns1)OCC | -13% | 2.69 | – | –
CN(C)c1ccc(C(=O)NC2CCCCC2)cc1 | -14% | 1.22 | – | –
O=C(Nc1csc(-c2cccc(NC(=O)c3cccc4ccccc34)c2)n1)c1ccccc1 | -26% | 3.1 | – | –
